Among all 360,000 compounds or so, about 520 (0.14%) were called active. The shares of active, inactive and inconclusive entries below differ from those in the screen. The call rests on the fitted dose curve; in most records, active means well fitted inhibition curve with a large enough effect; inconclusive means small, poorly fitted or top-dose-only effect; inactive means no such curve, though single readings can be large or run the other way. Potencies of inconclusive entries are left out as doubtful fits.
These molecules were tested against Rap guanine nucleotide exchange factor 3 (Homo sapiens) (UniProt O95398) (assay: qHTS for Antagonist of cAMP-regulated guanine nucleotide exchange factor 3 (EPAC1): primary screen). Details: EPAC1 GEF assay, Rap1b-BODIPY-GDP exchange fluorescence; series mostly up to 115 µM.
Further: nearly all actives have a fitted effect of over 50% in size.
Potency means the concentration at half of the fitted maximal effect; tags describe the fitted curve by direction and shape.

Sequence of UniProt O95398 (O95398 whole entry, looked up): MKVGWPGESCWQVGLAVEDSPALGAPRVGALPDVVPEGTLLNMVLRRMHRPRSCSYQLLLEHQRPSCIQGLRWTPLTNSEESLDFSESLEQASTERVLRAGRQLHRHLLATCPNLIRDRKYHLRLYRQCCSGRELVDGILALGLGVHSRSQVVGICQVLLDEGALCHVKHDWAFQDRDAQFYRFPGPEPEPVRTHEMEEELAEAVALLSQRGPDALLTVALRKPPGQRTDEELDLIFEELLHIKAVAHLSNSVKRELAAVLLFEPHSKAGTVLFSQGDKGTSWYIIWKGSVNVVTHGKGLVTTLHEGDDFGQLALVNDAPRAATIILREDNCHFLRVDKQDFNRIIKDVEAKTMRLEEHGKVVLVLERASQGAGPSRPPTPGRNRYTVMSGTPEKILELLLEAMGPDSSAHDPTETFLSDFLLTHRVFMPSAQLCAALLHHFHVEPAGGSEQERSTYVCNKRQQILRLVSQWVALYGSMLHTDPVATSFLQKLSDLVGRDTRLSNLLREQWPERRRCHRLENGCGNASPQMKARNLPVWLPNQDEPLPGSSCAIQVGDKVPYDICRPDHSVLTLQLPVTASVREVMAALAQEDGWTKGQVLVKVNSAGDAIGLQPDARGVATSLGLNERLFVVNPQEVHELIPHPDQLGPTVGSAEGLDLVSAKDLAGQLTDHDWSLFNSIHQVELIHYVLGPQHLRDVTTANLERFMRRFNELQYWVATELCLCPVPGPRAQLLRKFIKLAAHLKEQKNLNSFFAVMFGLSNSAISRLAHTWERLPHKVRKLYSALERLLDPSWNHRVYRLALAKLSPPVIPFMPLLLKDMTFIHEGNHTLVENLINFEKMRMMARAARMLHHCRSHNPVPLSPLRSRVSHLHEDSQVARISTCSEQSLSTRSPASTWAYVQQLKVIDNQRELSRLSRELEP

Row | SMILES | Potency
1 | O=C(O)CNc1ccc(S(=O)(=O)C(F)(F)F)cc1[N+](=O)[O-] | inactive
2 | Cc1ccc(C(=O)NCCNC(=O)COc2ccc(Cl)cc2)cn1 | inconclusive [inhibitor, full curve, poor fit]
3 | Cc1c(C(=O)OCC2CCCO2)[nH]c2c1C(=O)CC(c1ccco1)C2 (centres undefined) | inconclusive [inhibitor, partial curve]
4 | COc1cc(/C=C2\SC(=S)N(C(C(=O)O)c3ccccc3)C2=O)ccc1O (centres undefined) | inconclusive [inhibitor, partial curve]
5 | O=C1ON=C(c2ccccc2)/C1=C/c1ccc(-c2ccccc2[N+](=O)[O-])o1 | inconclusive [inhibitor, single point]
6 | COc1ccc(C(=O)Oc2cc(/C=N/NC(N)=S)ccc2OC)cc1 | inactive
7 | O=S(=O)(O)c1cccc2c(N=Nc3ccc(O)c4ncccc34)cccc12 | inconclusive [inhibitor, single point]
8 | Cc1ccc(N2C(=O)/C(=C\c3ccco3)SC2=S)cc1 | inconclusive [inhibitor, partial curve]
9 | COc1ccc(/C=C/C(=O)N(CC(C)C)CC(C)C)cc1Br | inconclusive [inhibitor, partial curve]
10 | Cc1ccccc1NC(=O)CN(c1ccc(F)cc1)S(C)(=O)=O | inconclusive [inhibitor, partial curve]
11 | CCCCCCCCOC(=O)C1=C(C)Nc2nnnn2C1c1cccs1 (centres undefined) | inconclusive [inhibitor, partial curve]
12 | CCCCCOC(=O)c1[nH]c2c(c1C)C(=O)CC(c1ccco1)C2 (centres undefined) | inactive
13 | COc1cc(OC)cc(C(=O)Nc2ccc(NC(=O)c3ccco3)c(Cl)c2)c1 | inconclusive [inhibitor, single point]
14 | CC1=CC(=O)c2ccccc2C1=O | inconclusive [inhibitor, partial curve]
15 | C/C(=N\Nc1ccc([N+](=O)[O-])cc1)c1ccc(O)cc1 | inconclusive [inhibitor, partial curve, poor fit]
16 | S=c1[nH]nc(-c2ccncc2)n1/N=C/C=C/c1ccco1 | inactive
17 | COc1ccc(CCN(C)C(=O)CNC(=O)c2ccccc2F)cc1OC | inconclusive [inhibitor, single point]
18 | CCC(C(=O)Nc1c(C)cc(C)cc1C)N1CCCCCC1 (centres undefined) | inactive
19 | COc1ccc(N2CCN(C(CNC(=O)C(=O)NCc3ccc4c(c3)OCO4)c3ccco3)CC2)cc1 (centres undefined) | inconclusive [inhibitor, full curve, poor fit]

From PubChem BioAssay AID720709 (National Center for Advancing Translational Sciences (NCATS), 2013)
